Data on three compounds can be found in patent US11542275B2, “Substituted imidazolidin-2-one derivatives as PRMT5 inhibitors” (Aurigene Discovery Technologies Limited, priority 2018, dated 2023).

The target of the assay is PRMT5/MEP50 Complex (Homo sapiens (Human), UniProt O14744). Kind of assay: PRMT5 inhibition based on TR-FRET assay. The format is biochemical. Particulars: 32 nM PRMT5:MEP50 complex, 50 nM Histone-H4 peptide, 1 μM SAM, 90 minutes at room temperature. The source says:
Protein arginine methyltransferase 5 (PRMT5) is a type II arginine methyltransferase that catalyze mono- and symmetric demethylation on arginine residues of histone or non-histone proteins in presence of S-adenosylmethionine (AdoMet or SAM) a cofactor responsible for donating the methyl group. PRMT5 is reported to be overexpressed in several human cancers. To identify compounds that inhibit the PRMT5 and decrease its activity, a TR-FRET based assay has been established. Time-resolved fluorescence resonance energy transfer (TR-FRET) HTS assays are homogeneous proximity assays where the interaction of two dye-labeled binding partners is detected by the energy transfer between a donor and an acceptor dye, and the subsequent light emission by the acceptor dye. PRMT5 catalyzes Histone H4 peptide which is biotin tagged to the Lysine amino acid at carboxyl end, in presence of S-adenosyl-1-methionine (SAM) to methylate the peptide. The antibody specific to mono methylated H4 peptide (H4R3) with Ig conjugate binds to the methylated peptide, indirectly binding to the Europium lanthanide. SureLight Allophycocyanin-Streptavidin binds to the biotin tag of the peptide, therefore accepting the energy transferred from the Europium lanthanide. This energy transfer between Europium to SureLight Allophycocyanin is a direct measure of the activity/inhibition of the PRMT5 enzyme.
Assay buffer: 20 mM BICINE (pH 7.6), 25 mM NaCl, 2 mM DTT, 0.01% Tween-20 and 0.01% BSA.
The compound dilutions were prepared as 7.5% DMSO stock solutions in assay buffer. To 2 μL (7.5×) of test compound, 5 μL of PRMT5 enzyme prepared in assay buffer (Final concentration of 32 nM in 15 μL reaction volume) was added and allowed for 30 minutes pre-incubation time in a white polystyrene 384-well plate at room temperature. […] The plates were then read on Victor-3 with Excitation at 340 nm and Emissions collected at 615 and 665 nm in TR-FRET protocol. […]
For orientation: In TR-FRET formats the signal depends on donor and acceptor labels being close together.

What is called IC50 is the concentration that gives 50% inhibition. Higher therefore signals weaker potency in that assay.

The compound `O=C1N(Cc2ccc(N3CCOCC3)cn2)CCN1C[C@H](O)CN1CCc2ccccc2C1` [Compound 4, (R)-1-(3-(3,4-dihydroisoquinolin-2(1H)-yl)-2-hydroxypropyl)-3-((5-morpholinopyridin-2-yl)methyl)imidazolidin-2-one] registered an IC50 of 26 nM. This counts as double-digit nanomolar. In the case of `CN(C)C(=O)C1CCN(c2ccc(CN3CCN(C[C@H](O)CN4CCc5ccccc5C4)C3=O)nc2)CC1` [Compound 97, (R)-1-(6-((3-(3-(3,4-dihydroisoquinolin-2(1H)-yl)-2-hydroxypropyl)-2-oxoimidazolidin-1-yl)methyl)pyridin-3-yl)-N,N-dimethylpiperidine-4-carboxamide] it was 119 nM. In the case of `O=C1N(Cc2ccc(C3CCN(Cc4nn[nH]n4)CC3)cn2)CCN1C[C@H](O)CN1CCc2ccccc2C1` [Compound 99, (R)-1-((5-(1-((2H-tetrazol-5-yl)methyl)piperidin-4-yl)pyridin-2-yl)methyl)-3-(3-(3,4-dihydroisoquinolin-2(1H)-yl)-2-hydroxypropyl)imidazolidin-2-one] it was 119 nM.
